≈ marks a conversion by molar mass, not a printed value. Where a name gives a salt, the structure may show the parent alone. This continues a long series; more values of the same kind are listed elsewhere.
What was measured:
Type in all cases: physicochemical
[1] = Solubility studies of Compound 1 meglumine salt in DMSO / ethyl acetate; details: dimethylsulfoxide (DMSO) at 50° C.
[2] = Kinetic solubility in water and bio-relevant media (SGF, FaSSIF, FeSSIF) at 37° C.; details: calculated by freeform
Protocol: Add 4 mL of medium (H2O, SGF, FaSSIF and FeSSIF). • Rolled at 37° C. (˜25 rpm). Sampling at 1, 2, 4 and 24 hrs. • At each time-point, sampled 0.8 mL of solution or suspension into a centrifuge tube prior to centrifugation (12000 rpm, 37° C., 5 min) and filtration through 0.45 μm PTFE membrane. • Tested pH and concentration for the filtrate. Analyze residual solids by XRPD.
0.1 g of NaCl and 0.05 g of Triton X-100 were weighed into a 50-mL volumetric flask. Purified water was added to dissolve the solid. 67.5 μL HCl (38%, 12M) was added after the solid was dissolved completely. pH was then adjusted to 1.8 using HCl (1 M) or NaOH (1 M). Purified water was added to the volume.
(§1) 0.17 g of anhydrous NaH2PO4, 0.021 g of NaOH and 0.31 g of NaCl were weighed into a 50-mL volumetric flask. ˜48 mL purified water was added to dissolve the solid. pH was adjusted to 6.5 using 1M HCl or 1M NaOH. Purified water was then added to the volume. 0.11 g of SIF powder was added into the volumetric flask.
as §1, with “0.41 mL” for “0.17 g”, “acetic acid, 0.20” for “anhydrous NaH2PO4, 0.021”, “0.59” for “0.31”, “5.0” for “6.5”, “0.56” for “0.11”

[3] = pH solubility in pH 1.0-8.0 buffers at RT; details: LOQ = 0.0001 mg/mL
Protocol: The procedures were listed below:
1. […] Add 2 ml, of the corresponding medium.
2. Mixed well and stirred at RT (1000 rpm). Check the pH and adjust it back to the target pH after dosing.
3. Sampled after 2 hours and 24 hours. The supernatant was isolated by centrifugation (12000 rpm, 5 min) and filtration (0.22 μm, PTFE) for pH and HPLC test.

Row | SMILES | S: Solubility ([2]; FeSSIF, 1 hr) [µg/mL] | S: Solubility ([2]; FeSSIF, 2 hrs) [µg/mL] | S: Solubility ([2]; FeSSIF, 4 hrs) [µg/mL] | Solubility ([3]; pH 1.0 buffer, 2 Hours) [mg/mL] | Solubility ([3]; pH 2.0 buffer, 2 Hours) [mg/mL] | Solubility ([3]; pH 3.5 buffer, 24 Hours) [mg/mL] | Solubility ([3]; pH 5.5 buffer, 24 Hours) | Solubility ([3]; pH 6.8 buffer, 2 Hours) [mg/mL] | Solubility ([3]; pH 6.8 buffer, 24 Hours) [mg/mL] | Solubility ([3]; pH 8.0 buffer, 2 Hours) [mg/mL] | Solubility ([3]; pH 8.0 buffer, 24 Hours) [mg/mL] | also measured
1 | N#Cc1ccc(COc2cccc(C3CCN(Cc4nc5ccc(C(=O)O)cc5n4Cc4cncs4)CC3)n2)c(F)c1 [Compound 1 meglumine salt] |  |  |  |  |  |  |  |  |  |  |  | solubility in DMSO [1]: high solubility
2 | N#Cc1ccc(COc2cccc(C3CCN(Cc4nc5ccc(C(=O)O)cc5n4Cc4cncs4)CC3)n2)c(F)c1 [Freeform Type C] | 6 | 6 | 6 | 0.18 (≈ 309 µM) | 0.034 (≈ 58.4 µM) | 0.0003 (≈ 0.515 µM) | <LOQ | 0.0001 (≈ 0.172 µM) | 0.0003 (≈ 0.515 µM) | 0.0066 (≈ 11.3 µM) | 0.0067 (≈ 11.5 µM) | Solubility ([3]; pH 3.5 buffer, 2 Hours): 0.016 mg/mL (≈ 27.5 µM); Solubility ([3]; pH 4.5 buffer, 24 Hours): <LOQ; Solubility ([3]; pH 5.5 buffer, 2 Hours): <LOQ
3 | N#Cc1ccc(COc2cccc(C3CCN(Cc4nc5ccc(C(=O)O)cc5n4Cc4cncs4)CC3)n2)c(F)c1 [Fumarate Type A] | 10 | 9 | 9 |  |  |  |  |  |  |  |  | S: Solubility ([2]; FaSSIF, 1 hr): 4 µg/mL; S: Solubility ([2]; FaSSIF, 2 hrs): 4 µg/mL; S: Solubility ([2]; FaSSIF, 4 hrs): 7 µg/mL; S: Solubility ([2]; FaSSIF, 24 hrs): 3 µg/mL; S: Solubility ([2]; FeSSIF, 24 hrs): 20 µg/mL; S: Solubility ([2]; H2O, 1 hr): 3 µg/mL; S: Solubility ([2]; H2O, 2 hrs): 3 µg/mL; S: Solubility ([2]; H2O, 4 hrs): 2 µg/mL; S: Solubility ([2]; H2O, 24 hrs): 3 µg/mL; S: Solubility ([2]; SGF, 1 hr): 46 µg/mL; S: Solubility ([2]; SGF, 2 hrs): 44 µg/mL; S: Solubility ([2]; SGF, 4 hrs): 43 µg/mL; S: Solubility ([2]; SGF, 24 hrs): 48 µg/mL
4 | N#Cc1ccc(COc2cccc(C3CCN(Cc4nc5ccc(C(=O)O)cc5n4Cc4cncs4)CC3)n2)c(F)c1 [Meglumine salt Type A] |  |  |  | 1.3 | 0.20 | 0.0075 | <LOQ* | 0.095 | 0.19 | 0.64 | 1.3 | Solubility ([3]; pH 1.0 buffer, 24 Hours): 0.15 mg/mL; Solubility ([3]; pH 2.0 buffer, 24 Hours): 0.016 mg/mL

From patent US20240360122A1, “POLYMORPHIC FORMS AND SALTS OF A GLP-1R AGONIST” (Terns (Suzhou) Biotechnology Co., Ltd., priority 2023, published 2024)
